Experimental findings from article PMC4336329 (PLoS ONE, 2015) are described below.

In all, about 310,000 compounds went through this assay and about 14,000 (4.5%) showed an effect of 50% or more. Effects have a minus sign here. This is one part of the list.
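Note: peak tail current of the secondary pulse compared with the same well before compound.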

This assay deals with human ether-à-go-go-related gene (hERG) potassium channel (human, UniProt Q12809). The assay can be described thus: primary screen, population patch clamp on CHO cells stably expressing hERG.
Sequence of human ether-à-go-go-related gene (hERG) potassium channel (Q12809 whole entry, looked up): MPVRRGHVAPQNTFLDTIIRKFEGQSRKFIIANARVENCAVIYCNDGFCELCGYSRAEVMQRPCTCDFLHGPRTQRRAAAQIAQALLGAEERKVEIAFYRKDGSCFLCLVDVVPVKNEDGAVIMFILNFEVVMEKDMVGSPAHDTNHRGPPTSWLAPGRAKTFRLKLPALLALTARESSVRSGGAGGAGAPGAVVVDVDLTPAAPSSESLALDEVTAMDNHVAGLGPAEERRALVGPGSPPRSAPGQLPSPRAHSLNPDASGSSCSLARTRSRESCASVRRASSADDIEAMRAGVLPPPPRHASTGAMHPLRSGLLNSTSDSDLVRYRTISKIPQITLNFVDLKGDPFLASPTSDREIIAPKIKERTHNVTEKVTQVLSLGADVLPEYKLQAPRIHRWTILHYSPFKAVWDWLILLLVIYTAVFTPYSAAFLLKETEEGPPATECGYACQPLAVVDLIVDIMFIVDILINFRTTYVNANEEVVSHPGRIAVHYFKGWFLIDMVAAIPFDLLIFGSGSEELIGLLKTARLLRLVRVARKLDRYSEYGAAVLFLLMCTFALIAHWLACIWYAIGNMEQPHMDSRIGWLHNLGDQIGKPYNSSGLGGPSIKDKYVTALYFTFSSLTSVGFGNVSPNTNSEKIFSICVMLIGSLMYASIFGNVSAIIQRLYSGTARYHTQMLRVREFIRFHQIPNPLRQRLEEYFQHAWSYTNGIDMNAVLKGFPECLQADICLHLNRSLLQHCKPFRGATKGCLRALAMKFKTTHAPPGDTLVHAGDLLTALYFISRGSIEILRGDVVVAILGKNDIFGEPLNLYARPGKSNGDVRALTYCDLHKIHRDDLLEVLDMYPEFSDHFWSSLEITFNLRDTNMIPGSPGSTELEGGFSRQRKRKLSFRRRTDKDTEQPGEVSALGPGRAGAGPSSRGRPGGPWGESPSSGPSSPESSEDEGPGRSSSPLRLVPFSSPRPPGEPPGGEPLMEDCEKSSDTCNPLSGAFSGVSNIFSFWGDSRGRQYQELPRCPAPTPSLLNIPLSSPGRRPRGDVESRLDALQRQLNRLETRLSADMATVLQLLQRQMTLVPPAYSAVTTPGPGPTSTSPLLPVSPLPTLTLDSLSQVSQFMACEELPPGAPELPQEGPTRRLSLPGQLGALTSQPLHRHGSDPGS
For the compound `COc1cc2nc(Nc3cccc(F)c3)nc(N)c2cc1OC.Cl`, the “hERG current change (%, negative = inhibition) at 10uM” value was -17.7%.
On to `Cc1cc2nc(N3CCN(C(=O)c4cccs4)CC3)sc2cc1C`, for which the “hERG current change (%, negative = inhibition) at 10uM” value is on record as 1.39%.
As for `Nc1cccc(C(=O)Nc2cccc3ncccc23)c1`, the “hERG current change (%, negative = inhibition) at 10uM” value was 23.8%.
In the case of `CCOc1cc(C(=O)Nc2ccccc2N2CCN(S(C)(=O)=O)CC2)cc(OCC)c1OCC` it was -29.1%; in that of `O=C(O)c1ccc(NC(CSCc2cccc(F)c2)C(=O)O)c([N+](=O)[O-])c1` (centres unmarked), 23.2%; in that of `COc1cccc(N2CCN(C3CC(=O)N(c4ccc(Cl)c(Cl)c4)C3=O)CC2)c1` (centres unmarked), -0.0262%.
`Cc1ccccc1-c1nnc(SCc2ccccc2)o1`: the “hERG current change (%, negative = inhibition) at 10uM” value was determined as 1.07%.
Next, `Oc1ccc(Cl)cc1C1=NNC(c2cccs2)C1` (centres unmarked): 9.76%; `COc1ccc(OCC(=O)Nc2c(C(=O)N3CCC(N4CCCCC4)CC3)oc3ccccc23)cc1`: -87.7%; `CN(C)S(=O)(=O)c1ccc(NC(=O)N2CCN(c3cccc(C(F)(F)F)c3)CC2)cc1`: 7.83%.
Turning to `CC1CCCCN1C(=O)CCS(=O)(=O)c1cc2c(cc1Cl)NC(=O)CO2` (centres unmarked), the “hERG current change (%, negative = inhibition) at 10uM” value is on record as -25.6%.
For the compound `CC(=O)Nc1ccc(S(=O)(=O)N2CCN(c3cc(C)nc4ccccc34)CC2)cc1`, the “hERG current change (%, negative = inhibition) at 10uM” value is -88.5%.
Next, `Cc1c(NC(=S)N/C(=N/S(=O)(=O)c2ccc(Cl)cc2)c2ccccc2)c(=O)n(-c2ccccc2)n1C`: -0.322%.
As for `O=C(CSc1ncccn1)NCc1ccc(F)cc1`, the “hERG current change (%, negative = inhibition) at 10uM” value turned out to be 1.15%.
For `COc1ccc(C(=O)Nc2nc(CC(=O)NCCc3ccccc3OC)cs2)cc1`, the “hERG current change (%, negative = inhibition) at 10uM” value is -6.94%.
For the compound `COc1cc(/C=N/NC(=O)c2ccccc2)ccc1O`, the “hERG current change (%, negative = inhibition) at 10uM” value is recorded as -10.1%.
As for `CCOc1c(Cl)cc(CNc2nnnn2C)cc1OC`, the “hERG current change (%, negative = inhibition) at 10uM” value came to 10%.
As to `O=c1cc(O)sc2ccccc12`, the “hERG current change (%, negative = inhibition) at 10uM” value was 11.3%.
Take `Cc1ccc(Cl)cc1NC(=S)N(Cc1ccco1)C(C)c1cccs1` (centres unmarked): the “hERG current change (%, negative = inhibition) at 10uM” value was 5.05%.
Regarding `COCCn1c(=S)[nH]c2ccc(N(C)C)cc2c1=O`, the “hERG current change (%, negative = inhibition) at 10uM” value is reported as -3.99%.
In the case of `CCOc1cc(/C=N/NC(=O)c2cccc([N+](=O)[O-])c2)ccc1OS(=O)(=O)c1ccccc1` it was -19%.
In the case of `N/C(=N\OC(=O)C12CC3CC(CC(C3)C1)C2)c1cccnc1`, the “hERG current change (%, negative = inhibition) at 10uM” value is on record as -7.01%.
For `NC(=O)c1ccc(C2SCC(=O)N2CCc2ccccc2)cc1` (centres unmarked), the “hERG current change (%, negative = inhibition) at 10uM” value is on record as -12.3%.
As to `O=C(COc1ccc(C(=S)N2CCOCC2)cc1Cl)Nc1ccccc1Cl`, the “hERG current change (%, negative = inhibition) at 10uM” value was determined as 12.7%.
Next, `CCOc1ccc(NC(=O)COC(=O)CCS(=O)(=O)c2ccc(C)cc2)cc1`: 8.85%; `CC(C)c1ncc(S(=O)(=O)c2ccc(C(F)(F)F)cn2)c(N)n1`: 11.6%; `NC(=O)c1ccc(NC(=O)C2CC(=O)N(c3ccc4c(c3)OCCO4)C2)cc1` (centres unmarked): 3.81%.
Next, `Cc1ccc(S(=O)(=O)C/N=C(/NC(=S)N(c2ccccc2)c2ccccc2)c2ccccc2)cc1`: -6.32%.
Next, `Cc1cccc(N2C(=O)CC(SC(N)=Nc3ccccc3)C2=O)c1` (centres unmarked): 20.7%; `CCOC(=O)N1CCC(NC(=O)C2CCN(S(=O)(=O)c3cccc4cccnc34)CC2)CC1`: -8.24%.
Consider `CN1C[C@@H]2C(c3ccccc3)C3(c4ccc(C#N)cc4)CC2(C3)[C@H]1c1ccccc1` (some centres unmarked), for which the “hERG current change (%, negative = inhibition) at 10uM” value was -32.5%.
With `CC1=NN(c2ccccc2)C(=O)/C1=C/c1cc(C)n(C2CC2)c1C`, the “hERG current change (%, negative = inhibition) at 10uM” value came out at 18.8%.
Turning to `CCCCN(CCCC)C(=O)CCS(=O)(=O)c1ccc2c(c1)n(C)c(=O)c(=O)n2C`, the “hERG current change (%, negative = inhibition) at 10uM” value is reported as -69.2%.
In the case of `CCOc1cc(NC(=O)c2ccco2)c(OCC)cc1NC(=O)c1ccco1` it was -0.564%.
On to `COC(=O)c1c(NC(=S)Nc2ccc(CC(=O)O)cc2)sc(C)c1C`, for which the “hERG current change (%, negative = inhibition) at 10uM” value was found to be 21.2%.
Consider `Cc1ccccc1OC(C)C(=O)Nc1ccc(S(=O)(=O)N2CCCC2)cc1` (centres unmarked), for which the “hERG current change (%, negative = inhibition) at 10uM” value is listed as -23.6%.
Next, `CC1=C(C)CS(=O)N(S(=O)(=O)c2ccc(Cl)cc2)C1` (centres unmarked): -1.52%.
Turning to `CN1CCN(C(=O)c2cc3ccccc3oc2=O)CC1`, the “hERG current change (%, negative = inhibition) at 10uM” value came out at 6.08%.
For the compound `CN(C)S(=O)(=O)c1cccc(NC(=O)CN2C(=O)NC(Cc3ccccc3)C2=O)c1` (centres unmarked), the “hERG current change (%, negative = inhibition) at 10uM” value is -11.9%.
In the case of `O=C(NCCO)/C(=C/c1ccc(Br)cc1)NC(=O)c1cccs1` it was -14%; in that of `CCC1(C)NC(=O)N(CC(=O)N2CCN(c3cccc(Cl)c3)CC2)C1=O` (centres unmarked), 11.2%; in that of `CCC(c1nnnn1CCc1ccccc1)N1CCN(c2ccc(OC)cc2)CC1` (centres unmarked), 6.23%.
Consider `CC(=O)Nc1c(O)nc(C)[nH]c1=O`, for which the “hERG current change (%, negative = inhibition) at 10uM” value is given as 6.51%.
Next, `CC(=O)c1sc(NCc2ccc(C)cc2)nc1C`: -9.58%.
In the case of `O=C(C1CCCN(S(=O)(=O)Cc2ccccc2)C1)N1CCC(Cc2ccccc2)CC1` (centres unmarked), the “hERG current change (%, negative = inhibition) at 10uM” value was -7.9%.
In the case of `C1N2CN3CN1CN(C2)C3`, the “hERG current change (%, negative = inhibition) at 10uM” value is listed as -2.53%.
`Cc1cccn2c(=O)c3c(nc12)N1CCCCCC1C1(C3)C(=O)N(C)C(=O)N(C)C1=O` (centres unmarked): the “hERG current change (%, negative = inhibition) at 10uM” value is on record as -1.39%.
On to `CSc1nnc2c3cc(C)ccc3n(Cc3ccccc3)c2n1`, for which the “hERG current change (%, negative = inhibition) at 10uM” value came out at 2.55%.
For `Oc1c(Cl)cc(Cl)cc1CNc1nc2ccccc2[nH]1`, the “hERG current change (%, negative = inhibition) at 10uM” value turned out to be 12.7%.
For the compound `Cc1ccc(C)c(Sc2ccc(NC(=O)CCl)cc2)c1`, the “hERG current change (%, negative = inhibition) at 10uM” value is 4.44%.
Take `Cn1c(=O)oc2cc(S(=O)(=O)Nc3ccccc3)ccc21`: the “hERG current change (%, negative = inhibition) at 10uM” value is given as 9.35%.
With `CCNC(=O)NNC(=O)C1CC(c2cccnc2)=NO1` (centres unmarked), the “hERG current change (%, negative = inhibition) at 10uM” value is reported as 27.3%.
Turning to `O=C(c1nc2ccccn2c1CNCCn1ccc2ccccc21)N1CCOCC1`, the “hERG current change (%, negative = inhibition) at 10uM” value is -0.623%.
Next, `Cc1nc(NCC2CCCO2)nc2c1C(=O)CC(C)C2` (centres unmarked): -16.7%; `Cc1ccc(NC(=O)C2CCCN(S(=O)(=O)c3cccc4nonc34)C2)cc1` (centres unmarked): 20.9%.
In the case of `COc1ccc(NS(=O)(=O)c2ccc(O)c(NC(=O)c3ccc(S(=O)(=O)N4CCCCCC4)cc3)c2)cc1`, the “hERG current change (%, negative = inhibition) at 10uM” value came to 1.73%.
